The other results are listed elsewhere or left out. Most values come without repeats; read them as rough.
How the values were obtained:
IMR-32 [1] = assay: drug sensitivity score (DSS), single drug with vehicle (DSS (score)); higher = more cytotoxic; extreme values may be limits of the assay; details: 72 h; co-treatment: vehicle (DMSO)
SK-N-AS [2] = assay: as above; details: 72 h; co-treatment: vehicle (DMSO)
SK-N-AS [3] = assay: drug sensitivity score (DSS) in combination with SL-176 (DSS (score)); higher = more cytotoxic; extreme values may be limits of the assay; details: 72 h; co-treatment: SL-176 11.2 uM (IC25 in IMR-32)
IMR-32 [4] = assay: as above; details: 72 h; co-treatment: SL-176 11.2 uM (IC25 in IMR-32)
SK-N-AS [5] = assay: drug sensitivity score (DSS) in combination with GSK2830371 (DSS (score)); neuroblastoma lines; SL-176 and GSK2830371 are WIP1 inhibitors; higher = more cytotoxic; extreme values may be limits of the assay; details: 72 h; co-treatment: GSK2830371 at IC25 in IMR-32
IMR-32 [6] = assay: as above; details: 72 h; co-treatment: GSK2830371 at IC25 in IMR-32
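Throughout, for drug sensitivity score (DSS) in combination with GSK2830371: neuroblastoma cells in 384-well plates, each compound at five concentrations, luminescence read-out, DSS derived from fitted concentration-response curve combining IC50 with minimum and maximum inhibition.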
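Throughout, for drug sensitivity score (DSS) in combination with SL-176: cells in 384-well plates, luminescence read-out, each screening drug at five concentrations, DSS derived from the fitted concentration-response curve combining IC50 with minimum and maximum inhibition.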
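Throughout, for drug sensitivity score (DSS), single drug with vehicle: 384-well screen with five concentrations per compound and a luminescence read-out, DSS computed from the fitted dose-response curve combining IC50 with minimum and maximum inhibition.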

Row | Compound | drug sensitivity score (IMR-32 [1]) | drug sensitivity score (SK-N-AS [2]) | drug sensitivity score (SK-N-AS [3]) | drug sensitivity score (IMR-32 [4]) | drug sensitivity score (SK-N-AS [5]) | drug sensitivity score (IMR-32 [6])
1 | CCC(C)n1ncn(-c2ccc(N3CCN(c4ccc(OCC5COC(Cn6cncn6)(c6ccc(Cl)cc6Cl)O5)cc4)CC3)cc2)c1=O (configuration not stated) [Itraconazole] | 0.9 | 0 | 1.5 | 4 | 1.7 | 1.4
2 | CC(=O)[C@]1(O)Cc2c(O)c3c(c(O)c2[C@@H](O[C@H]2C[C@H](N)[C@H](O)[C@H](C)O2)C1)C(=O)c1ccccc1C3=O [Idarubicin] | 23.1 | 9.4 | 9.4 | 22.5 | 10.2 | 25.9
3 | COCCOc1cnc2ccn([C@H](C)c3nnc4c(F)cc(-c5cnn(C)c5)cn34)c(=O)c2c1 | 0 | 0 | 0 | 0 | 0 | 2.2
4 | CC(C)(C)c1nc(-c2cccc(NS(=O)(=O)c3c(F)cccc3F)c2F)c(-c2ccnc(N)n2)s1 [Dabrafenib] | 0 | 1.1 | 0.8 | 0 | 0.8 | 0
5 | O=c1[nH]cc(F)c(=O)[nH]1 [Fluorouracil] | 9.6 | 3 | 3.4 | 9.8 | 3.7 | 11.8
6 | CNC(=O)c1cc(Oc2ccc(NC(=O)Nc3ccc(Cl)c(C(F)(F)F)c3)c(F)c2)ccn1 [Regorafenib] | 6.6 | 6.8 | 8 | 9 | 7.3 | 7.7
7 | O=C(O)c1ccc(CN2CCC(CN[C@@H]3C[C@H]3c3ccccc3)CC2)cc1 | 0 | 0 | 0 | 0 | 0 | 0
8 | CON(C)C(=O)N1N=C(c2cc(F)ccc2F)S[C@@]1(CCCN)c1ccccc1 [Filanesib] | 23.2 | 22.2 | 23.5 | 26.7 | 22.2 | 27.9
9 | Cc1c(Cn2c(C)nc3c(C(=O)O)cc(N4CCOCC4)cc32)cccc1C(F)(F)F | 0 | 0 | 0 | 0 | 0 | 0.6
10 | CC(C)n1nc(-c2ccc3oc(N)nc3c2)c2c(N)ncnc21 [Sapanisertib] | 12.2 | 15 | 14.3 | 10.6 | 15.8 | 17.4
11 | C[C@]12C=CC(=O)C=C1CC[C@@H]1[C@@H]2[C@@H](O)C[C@@]2(C)[C@H]1CC[C@]2(O)C(=O)CO [Prednisolone] | 0.3 | 0 | 0.1 | 0 | 0 | 0
12 | NC(=O)Nc1cc(-c2cccc(F)c2)sc1C(=O)N[C@H]1CCCNC1 | 8.6 | 13.1 | 10.7 | 9.2 | 13 | 5.8
13 | NC[C@@](O)(c1ccc(Cl)cc1)c1ccc(-c2cn[nH]c2)cc1 | 5 | 3.5 | 3.9 | 4.7 | 1.9 | 6.9
14 | COc1c(OCCCN2CCOCC2)ccc2c1N=C(NC(=O)c1cnc(N)nc1)N1CCN=C21 [Copanlisib] | 6.2 | 8.2 | 8.4 | 5.4 | 7.6 | 9
15 | COc1cc(C)c(/C=C/C(C)=C/C=C/C(C)=C/C(=O)O)c(C)c1C [Acitretin] | 0 | 1.2 | 0.8 | 0 | 1.9 | 0
16 | COc1ccc(COc2cc3oc(=O)c4cc(C(C)O)ccc4c3cc2OC)cc1 (configuration not stated) [Palomid-529] | 0.4 | 2.2 | 3.1 | 0 | 1.9 | 2.4
17 | COc1ccc(-c2ccc3c(N4CCOC[C@@H]4C)nc(N4CCOC[C@@H]4C)nc3n2)cc1CO | 19.6 | 22.1 | 20.9 | 18.4 | 22.5 | 24.5
18 | CCn1c(-c2nonc2N)nc2c(C#CC(C)(C)O)ncc(OC[C@H]3CCCNC3)c21 | 2.6 | 1.1 | 0.3 | 2.3 | 0.2 | 5.6
19 | CN(CC(=O)N(Cc1ccc(C2CCCCC2)cc1)c1ccc(C(=O)O)cc1)S(=O)(=O)c1c(F)c(F)c(F)c(F)c1F | 6.3 | 6.3 | 6.9 | 6.5 | 5.7 | 5
20 | CC(C)Cn1cnc2c(N)nc3ccccc3c21 [Imiquimod] | 0.1 | 0 | 0 | 0.5 | 0 | 0
21 | CCS(=O)(=O)N1CCN(c2ccc(Nc3ncc(C(N)=O)c(NC4CC4)n3)cc2)CC1 [Cerdulatinib] | 3.5 | 1.5 | 0.3 | 6.8 | 1 | 15.1
22 | Cc1cc(OCc2nnc(SC3CCCC3)n2-c2cccnc2)ccc1-c1ccc(S(C)(=O)=O)cc1 | 8.9 | 13.2 | 10.3 | 9.4 | 9.8 | 8.7
23 | CN1CCN(C(=O)c2ccc3cc(CCNc4ncnc5ccc(C#N)cc45)ccc3c2)CC1 [Senexin B] | 4.9 | 0.2 | 0 | 3.6 | 0.5 | 7.4
24 | O[C@H]1CC[C@H](Nc2ncc3nc(Nc4c(F)cc(F)cc4F)n([C@H]4CCOC4)c3n2)CC1 [Tanzisertib] | 0 | 0 | 0.2 | 0 | 0.7 | 0.2

Row | Compound | drug sensitivity score (IMR-32 [1]) | drug sensitivity score (SK-N-AS [2]) | drug sensitivity score (SK-N-AS [3]) | drug sensitivity score (IMR-32 [4]) | drug sensitivity score (SK-N-AS [5]) | drug sensitivity score (IMR-32 [6])
25 | CN1CCN(c2ccc(C(=O)Nc3n[nH]c4ccc(Cc5cc(F)cc(F)c5)cc34)c(NC3CCOCC3)c2)CC1 [Entrectinib] | 0 | 1.5 | 0.4 | 1.4 | 1.8 | 2
26 | COc1c(C)cnc(Cn2cnc3c(Cl)nc(N)nc32)c1C | 17.8 | 18.1 | 22 | 15.7 | 19.4 | 22.2
27 | CC(C)Oc1ccc(-c2nn([C@@H](C)c3oc4ccc(F)cc4c(=O)c3-c3cccc(F)c3)c3ncnc(N)c23)cc1F | 0 | 0 | 0 | 15.5 | 0 | 0.2
28 | O=C(Nc1c[nH]nc1-c1nc2ccc(CN3CCOCC3)cc2[nH]1)NC1CC1 | 21.4 | 5 | 4.6 | 19.2 | 6.2 | 23.6
29 | CCCCC(=O)OCC(=O)[C@]1(O)Cc2c(O)c3c(c(O)c2[C@@H](O[C@H]2C[C@H](NC(=O)C(F)(F)F)[C@H](O)[C@H](C)O2)C1)C(=O)c1c(OC)cccc1C3=O [Valrubicin] | 22.4 | 7.6 | 8.4 | 23.7 | 8.3 | 29.4
30 | COc1cc(NS(C)(=O)=O)ccc1Nc1c2ccccc2nc2ccccc12 [Amsacrine] | 33.8 | 6.7 | 5.9 | 31.6 | 6.4 | 34.6
31 | CNC(=O)CN1CCC(Oc2cc3c(Nc4cccc(Cl)c4F)ncnc3cc2OC)CC1 [Sapitinib] | 0 | 0 | 0 | 0 | 0 | 0
32 | COc1cc2c(cc1-c1c(C)noc1C)ncc1[nH]c(=O)n([C@H](C)c3ccccn3)c12 | 10.8 | 6.9 | 7.5 | 12.4 | 8.7 | 12.5
33 | CNC(=O)c1ccc(N2C(=S)N(c3ccc(C#N)c(C(F)(F)F)c3)C(=O)C2(C)C)cc1F [Enzalutamide] | 0 | 0 | 0.1 | 0 | 0 | 0
34 | Cc1cn(-c2cc(NC(=O)c3ccc(C)c(Nc4nccc(-c5cccnc5)n4)c3)cc(C(F)(F)F)c2)cn1 [Nilotinib] | 3.8 | 3.8 | 3.7 | 5.1 | 0.2 | 4.2
35 | Cc1c(F)cc(C(=O)NC2CC2)cc1-c1ccc(C(=O)NCC(C)(C)C)cn1 [Losmapimod] | 3.3 | 0 | 1.1 | 6.4 | 0 | 6.6
36 | CO[C@@H](C)Cn1c(=O)n(C)c2cnc3ccc(-c4cncc(C(C)(C)O)c4)cc3c21 | 11.6 | 12.3 | 11.6 | 9.6 | 12.8 | 13.6
37 | C=CC(=O)Nc1cccc(Nc2nc(Nc3ccc(OCCOC)cc3)ncc2F)c1 [Spebrutinib] | 1.8 | 1.3 | 0.4 | 0 | 1.4 | 3.5
38 | O=C(Nc1cnn2ccc(N3CCC[C@@H]3c3cc(F)ccc3F)nc12)N1CC[C@H](O)C1 [Larotrectinib] | 0 | 0 | 0 | 0 | 0 | 0
39 | O=C(O)CC[C@H]1CC[C@@](c2cc(F)ccc2F)(S(=O)(=O)c2ccc(Cl)cc2)CC1 | 4.8 | 0 | 0 | 0.6 | 0 | 0
40 | O=C(/C=C/c1cccc(S(=O)(=O)Nc2ccccc2)c1)NO [Belinostat] | 21 | 20.6 | 18.8 | 20.6 | 21.6 | 24.3
41 | COc1cc(Nc2ncc(F)c(Nc3ccc4c(n3)N(COP(=O)(O)O)C(=O)C(C)(C)O4)n2)cc(OC)c1OC [Fostamatinib] | 0.3 | 0.5 | 0.9 | 2.3 | 0 | 2.4
42 | CN1CCN(c2nc(C3=C(c4c[nH]c5ccccc45)C(=O)NC3=O)c3ccccc3n2)CC1 [Sotrastaurin] | 5.2 | 0.8 | 2.1 | 3.5 | 0.8 | 7
43 | CC(=O)O[C@@]12CO[C@@H]1C[C@H](O)[C@@]1(C)C(=O)[C@H](O)C3=C(C)[C@@H](OC(=O)[C@H](O)[C@@H](NC(=O)OC(C)(C)C)c4ccccc4)C[C@@](O)([C@@H](OC(=O)c4ccccc4)[C@H]21)C3(C)C [Docetaxel] | 41.7 | 26.8 | 25.3 | 42.4 | 27 | 42.5
44 | C[C@H]1CN(C2COC2)CCN1c1ccc(Nc2cc(-c3ccnc(N4CCn5c(cc6c5CC(C)(C)C6)C4=O)c3CO)cn(C)c2=O)nc1 | 0.7 | 0 | 0 | 0 | 0 | 0
45 | O=C(c1ccc(C(=O)N2CCC(N3CCCC3)CC2)c(Nc2ccccc2)c1)N1CCC(N2CCCC2)CC1 | 0 | 0 | 0 | 0 | 0 | 0
46 | O=C(Nc1cc(Oc2cc(F)c(NC(=O)C3(C(=O)Nc4ccc(F)cc4)CC3)cc2F)ccn1)C1CC1 [Altiratinib] | 8.3 | 5.3 | 4.3 | 9.5 | 4.6 | 11.1
47 | CC(C)n1cnc2c(NCCc3ccc(O)cc3)nc(-c3csc4ccccc34)nc21 [StemRegenin 1] | 0.8 | 1 | 1.6 | 0 | 0.8 | 2.7
